For 31 sequences, binding signal (RPM ratio (pull-down/input)) results are on record in publication PMC12820563.

The list shows a part of the results. The list includes weakly bound sequences.

The target of this assay is T1, MBP-FoxP3dN (UniProt Q99JB6).
T1 sequence: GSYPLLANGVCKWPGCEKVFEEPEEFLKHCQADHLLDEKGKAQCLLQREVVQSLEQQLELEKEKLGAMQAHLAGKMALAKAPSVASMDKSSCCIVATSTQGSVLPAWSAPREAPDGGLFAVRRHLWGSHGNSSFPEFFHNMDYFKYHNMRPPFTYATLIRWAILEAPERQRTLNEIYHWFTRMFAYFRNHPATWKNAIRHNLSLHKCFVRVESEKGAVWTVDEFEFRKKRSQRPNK
Kind of assay: PD-seq (MBP pull-down with sequencing). The following applies: 20 mM Tris-HCl pH 7.5, 100 mM NaCl, 1.5 mM MgCl2, 0.4 uM protein, 0.1 uM dsDNA library, 30 min, room temperature, amylose pull-down; high values mean tight binding; double strand, one strand shown.
In the case of “GATGATTGTTCTCCCAGCTGATGAATTATCCAGATCGAGTAAACAAATTTTCCTAATCTTTCTGTTCAAGCGCCATCTAC”, the binding signal (RPM ratio (pull-down/input)) was 0.189.
In the case of “GATGATTGTTCTCCCAGCTGATGAATTAGCGTCGTCGAGTAAACAAATTTTCCTAATCTTTCTGTTCAAGCGCCATCTAC”, the binding signal (RPM ratio (pull-down/input)) is 1.08.
“GATGATTGTTCTCCCAGCTGATGAATTGCGATGATCGAGTAAACAAATTTTCCTAATCTTTCTGTTCAAGCGCCATCTAC”: the binding signal (RPM ratio (pull-down/input)) is 1.1.
As for “GATGATTGTTCTCCCAGCTGATGAATTTTCGTGCTCGAGTAAACAAATTTTCCTAATCTTTCTGTTCAAGCGCCATCTAC”, the figure is 0.342.
For “GATGATTGTTCTCCCAGCTGATGAATTTTGAGGTTCGAGTAAACAAATTTTCCTAATCTTTCTGTTCAAGCGCCATCTAC”, the binding signal (RPM ratio (pull-down/input)) turned out to be 0.596.
For the sequence “GATGATTGTTCTCCCAGCTGATGAATTCCGTTTTTCGAGTAAACAAATTTTCCTAATCTTTCTGTTCAAGCGCCATCTAC”, the binding signal (RPM ratio (pull-down/input)) was found to be 1.38.
As to “GATGATTGTTCTCCCAGCTGATGAATTAGAATGATCGAGTAAACAAATTTTCCTAATCTTTCTGTTCAAGCGCCATCTAC”, the binding signal (RPM ratio (pull-down/input)) came out at 0.319.
Turning to “GATGATTGTTCTCCCAGCTGATGAATTATCACTCTCGAGTAAACAAATTTTCCTAATCTTTCTGTTCAAGCGCCATCTAC”, the binding signal (RPM ratio (pull-down/input)) worked out at 0.476.
Turning to “GATGATTGTTCTCCCAGCTGATGAATTCGCTTTGTCGAGTAAACAAATTTTCCTAATCTTTCTGTTCAAGCGCCATCTAC”, the binding signal (RPM ratio (pull-down/input)) came out at 1.88.
With “GATGATTGTTCTCCCAGCTGATGAATTGGTATCGTCGAGTAAACAAATTTTCCTAATCTTTCTGTTCAAGCGCCATCTAC”, the binding signal (RPM ratio (pull-down/input)) turned out to be 1.23.
Regarding “GATGATTGTTCTCCCAGCTGATGAATTTACACCGTCGAGTAAACAAATTTTCCTAATCTTTCTGTTCAAGCGCCATCTAC”, the binding signal (RPM ratio (pull-down/input)) stood at 0.505.
In the case of “GATGATTGTTCTCCCAGCTGATGAATTCAGAATTTCGAGTAAACAAATTTTCCTAATCTTTCTGTTCAAGCGCCATCTAC”, the binding signal (RPM ratio (pull-down/input)) came out at 1.
With “GATGATTGTTCTCCCAGCTGATGAATTCTGGCGCTCGAGTAAACAAATTTTCCTAATCTTTCTGTTCAAGCGCCATCTAC”, the binding signal (RPM ratio (pull-down/input)) turned out to be 0.343.
Then “GATGATTGTTCTCCCAGCTGATGAATTTTCGTAGTCGAGTAAACAAATTTTCCTAATCTTTCTGTTCAAGCGCCATCTAC”, with 0.337.
Then “GATGATTGTTCTCCCAGCTGATGAATTTGCAATTTCGAGTAAACAAATTTTCCTAATCTTTCTGTTCAAGCGCCATCTAC”, with 2.77; and “GATGATTGTTCTCCCAGCTGATGAATTTATACCCTCGAGTAAACAAATTTTCCTAATCTTTCTGTTCAAGCGCCATCTAC”, with 0.857; and “GATGATTGTTCTCCCAGCTGATGAATTGCCGAACTCGAGTAAACAAATTTTCCTAATCTTTCTGTTCAAGCGCCATCTAC”, with 0.417.
Regarding “GATGATTGTTCTCCCAGCTGATGAATTTGGCCTATCGAGTAAACAAATTTTCCTAATCTTTCTGTTCAAGCGCCATCTAC”, the binding signal (RPM ratio (pull-down/input)) was found to be 1.94.
For “GATGATTGTTCTCCCAGCTGATGAATTCATGACTTCGAGTAAACAAATTTTCCTAATCTTTCTGTTCAAGCGCCATCTAC”, the binding signal (RPM ratio (pull-down/input)) came to 0.5.
Take “GATGATTGTTCTCCCAGCTGATGAATTCGAGTGTTCGAGTAAACAAATTTTCCTAATCTTTCTGTTCAAGCGCCATCTAC”: the binding signal (RPM ratio (pull-down/input)) stood at 0.858.
Then “GATGATTGTTCTCCCAGCTGATGAATTAATAGTATCGAGTAAACAAATTTTCCTAATCTTTCTGTTCAAGCGCCATCTAC”, with 0.837; and “GATGATTGTTCTCCCAGCTGATGAATTCACTGAATCGAGTAAACAAATTTTCCTAATCTTTCTGTTCAAGCGCCATCTAC”, with 0.203; and “GATGATTGTTCTCCCAGCTGATGAATTCTAAGAGTCGAGTAAACAAATTTTCCTAATCTTTCTGTTCAAGCGCCATCTAC”, with 0.245.
As for “GATGATTGTTCTCCCAGCTGATGAATTGTCGCGTTCGAGTAAACAAATTTTCCTAATCTTTCTGTTCAAGCGCCATCTAC”, the figure is 1.52; as for “GATGATTGTTCTCCCAGCTGATGAATTAGCATACTCGAGTAAACAAATTTTCCTAATCTTTCTGTTCAAGCGCCATCTAC”, 1.31; as for “GATGATTGTTCTCCCAGCTGATGAATTCTGAGCTTCGAGTAAACAAATTTTCCTAATCTTTCTGTTCAAGCGCCATCTAC”, 0.317.
Consider “GATGATTGTTCTCCCAGCTGATGAATTGATATTCTCGAGTAAACAAATTTTCCTAATCTTTCTGTTCAAGCGCCATCTAC”, for which the binding signal (RPM ratio (pull-down/input)) was 0.89.
Take “GATGATTGTTCTCCCAGCTGATGAATTATAGATATCGAGTAAACAAATTTTCCTAATCTTTCTGTTCAAGCGCCATCTAC”: the binding signal (RPM ratio (pull-down/input)) was found to be 0.499.
Then “GATGATTGTTCTCCCAGCTGATGAATTCGGACCATCGAGTAAACAAATTTTCCTAATCTTTCTGTTCAAGCGCCATCTAC”, with 0.399.
Then “GATGATTGTTCTCCCAGCTGATGAATTCCGCTACTCGAGTAAACAAATTTTCCTAATCTTTCTGTTCAAGCGCCATCTAC”, with 2.1; and “GATGATTGTTCTCCCAGCTGATGAATTATAGCTTTCGAGTAAACAAATTTTCCTAATCTTTCTGTTCAAGCGCCATCTAC”, with 1.01.
